We go through 25 compounds from PubChem BioAssay AID463173 (ICCB-Longwood Screening Facility, Harvard Medical School, 2010).

The campaign covered roughly 52,000 compounds. About 1,700 (3.3%) were called active. Cut-off read from the data, not from the text of the source: active = survival mostly below about 52% (no sharp cut-off); inactive = mostly above about 56%. This is one part of the list.

This experiment has as its system Wild type. The experiment is described as follows: growth inhibition of S. aureus wild type versus tarO mutant, primary screen, teichoic acid synthesis inhibitors, RN4220, OD600 (AID 463173). The following applies: S. aureus RN4220 wild type/DeltatarO growth, OD600, 18 h, active compounds read low, screened at 18.75 µg/mL (by protocol).
For the compound `O=S(=O)(NCCc1csc2nc(-c3ccc(F)cc3)nn12)c1ccc2c(c1)OCCO2`, the survival was inactive: 131%. In the case of `COc1ccc(NC(=O)CCn2nc(-c3ccc(Cl)cc3)c3ccccc3c2=O)cc1` it was inactive: 82%.

`O=C(Nc1nnc(N2CCCC2)s1)Nc1cc(F)ccc1F`: the survival was inactive: 82%. In the case of `Cc1oc(-c2cccc(Cl)c2)nc1CN1CCC(C(=O)NCc2ccc(F)cc2)CC1` it was inactive: 92%; in that of `O=C(NCCc1ccccc1)c1c2c(nc3ccccc13)C(=O)N(C1CCCCC1)C2`, inactive: 83%. In the case of `CCCCNC(=O)c1c[nH]c2c(F)cccc2c1=O` it was inactive: 103%; in that of `O=C1c2ccc(Oc3ccc4c(c3)C(=O)N(c3ncccn3)C4=O)cc2C(=O)N1c1ncccn1`, inactive: 118%. Under `Cc1cc2ccccc2nc1SCC(N)=O` stands inactive: 115%; under `CCCN1C(=O)c2[nH]nc(-c3ccc(F)cc3)c2C1c1ccc(O)c(OCC)c1` (stereo not given), inactive: 73%; under `CC(=O)c1cccc(NC(=O)C2CCN(c3nnc(-n4cccc4)s3)CC2)c1`, inactive: 66%. Take `CCc1cccc(Nc2c3c(nc4ncnn24)CCC3)c1`: the survival is inactive: 108%.

`Cc1ccc(N2C(=O)CSC23C(=O)Nc2ccccc23)cc1F` (stereo not given): the survival is inactive: 75%. In the case of `Cc1cccc(-c2nc3c4ccccc4n(CC(=O)Nc4cc(F)ccc4F)c(=O)n3n2)c1` it was inactive: 83%; in that of `Cc1cc2c(n1-c1ccc(C(=O)NCc3cccc(Br)c3)cc1)CCC(C)C2` (stereo not given), inactive: 140%; in that of `CCOC(=O)c1c(-c2ccccc2)oc2ccc(OCc3ccc(C)cc3)cc12`, inactive: 17%. On to `Cc1ccccc1Cn1c(=O)n(CCCCC(=O)NCc2ccc3c(c2)OCO3)c(=O)c2ccccc21`, for which the survival is inactive: 97%. In the case of `CCOc1ccc(C(=O)Nc2c(C)nc(Nc3ccccc3)nc2Nc2ccccc2)cc1OCC` it was inactive: 77%; in that of `COc1ccc(S(=O)(=O)Nc2c(C)n(C)n(-c3ccccc3)c2=O)cc1Br`, inactive: 76%; in that of `COc1ccc(C(=O)Cn2c(=O)n3nc(CCn4nc(C)cc4C)nc3c3cc(OC)c(OC)cc32)cc1`, inactive: 153%. In the case of `O=C(NCc1ccncc1)Nc1ccccc1` it was inactive: 118%; in that of `COc1ccc(CCNc2nc(-c3ccccc3OC)cc(C(F)(F)F)n2)cc1OC`, active: -8%; in that of `COc1ccccc1N1CCN(C(=O)CSc2nc(C)cc(=O)[nH]2)CC1`, inactive: 86%.

For the compound `CC(C)Nc1cc(N2CCN(C3CCCCC3)CC2)c2noc3c2c1C(=O)c1ccccc1-3`, the survival is inactive: 78%. Take `CCOc1ccccc1CNC(=O)C1=C(C)C(=O)OC12CCN(C(C)=O)CC2`: the survival is inactive: 73%.

As to `CCOc1ccc(CNC(=O)C(C)n2ncn3cccc3c2=O)cc1` (stereo not given), the survival is inactive: 88%.
